Measurements: publication PMC6919601, “Identification of Plasmodium dipeptidyl aminopeptidase allosteric inhibitors by high throughput screening” (PLoS ONE, 2019)
In all, about 110,000 compounds went through this assay and about 230 (0.21%) showed an effect of 50% or more. Some of the results follow.

target: DPAP1 (Plasmodium falciparum, UniProt Q8IIJ9); assay: primary screen, percent inhibition; read by cleavage of a fluorogenic dipeptide substrate; higher = more effect of the substance; set-up: species or system P. falciparum D10 trophozoite lysates; single well
Sequence (Q8IIJ9 whole entry, looked up): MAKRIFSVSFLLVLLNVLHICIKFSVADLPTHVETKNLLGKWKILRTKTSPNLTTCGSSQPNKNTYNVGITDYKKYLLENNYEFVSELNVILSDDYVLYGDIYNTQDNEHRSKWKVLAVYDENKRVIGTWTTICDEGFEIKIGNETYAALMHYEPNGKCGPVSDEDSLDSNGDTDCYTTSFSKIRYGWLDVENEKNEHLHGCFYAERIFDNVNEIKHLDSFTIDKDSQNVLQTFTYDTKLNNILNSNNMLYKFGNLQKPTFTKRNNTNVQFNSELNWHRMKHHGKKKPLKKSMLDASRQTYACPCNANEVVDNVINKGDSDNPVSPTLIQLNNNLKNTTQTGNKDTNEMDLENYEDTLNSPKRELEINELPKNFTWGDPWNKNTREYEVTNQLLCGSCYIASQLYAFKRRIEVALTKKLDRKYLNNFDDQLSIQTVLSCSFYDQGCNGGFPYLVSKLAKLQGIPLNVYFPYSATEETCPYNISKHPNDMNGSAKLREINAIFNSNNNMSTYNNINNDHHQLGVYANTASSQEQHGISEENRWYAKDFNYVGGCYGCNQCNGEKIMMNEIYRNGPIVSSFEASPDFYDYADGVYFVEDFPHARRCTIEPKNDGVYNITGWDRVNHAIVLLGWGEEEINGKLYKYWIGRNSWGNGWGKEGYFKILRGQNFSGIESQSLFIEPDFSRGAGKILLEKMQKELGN
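Also: 30 min substrate incubation versus DMSO and 10 µM JCP410 controls.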

Compound	% Inhibition @ 10 uM
Cc1cccc(CN2CCN(C/C=C/c3ccccc3)CC2)c1	3.1%
CCC(Oc1ccccc1)C(=O)N1CCN(C(c2ccccc2)c2ccccc2)CC1 (centres unmarked)	0.177%
CC(C)Oc1ccccc1-c1cc(C(=O)O)c2ccccc2n1	-9.68%
CCOC(=O)N1CCN(CC(O)COCc2cc(OC)c(OC)c(OC)c2)CC1 (centres unmarked)	15.9%
COc1ccc(C2(CNC(=O)c3ccc(F)cc3)CCCC2)cc1OC	3.95%
O=C1C2C3C=C(Cl)C(c4ccccc43)C2C(=O)N1c1cccc(Br)c1 (centres unmarked)	-5.07%
Cc1ccc(NC(=O)CSc2ncn(-c3ccccc3)n2)cc1C	-0.545%
Cc1[nH]c(-c2ccco2)nc1C12CC3CC(CC(C3)C1)C2	-2.44%
c1ccc(C2CCC(NCCN3CCOCC3)CC2)cc1 (centres unmarked)	-3.27%
C=C(C)CN(CC)C1CCN(C)CC1	1.08%
Cc1cc(NC(=O)c2cc3c(Cl)nc4ccccc4c3s2)no1	3.06%
CCOC(=O)C1=C(C)NC(=O)NC1c1cc(Br)ccc1OC (centres unmarked)	-2.28%
Cc1nn(CC(=O)NCCCN2CCN(Cc3ccccc3)CC2)c(=O)c2cccn12	1%
CCOc1ccc(C2C(C(=O)c3ccc(F)cc3)=C(O)C(=O)N2CCCCCC(=O)O)cc1 (centres unmarked)	-0.178%
CCOc1cc(/C=C2/C(=N)N3C(SCC(C)C)=NSC3=NC2=O)ccc1O	-6.51%
Cc1cc(C)n(-c2cc(C)c3ccccc3n2)n1	-1.59%
Cc1c2cnn(CC(=O)NCCCN3CCc4ccccc4C3)c(=O)c2c(C)n1Cc1ccccc1	-0.447%
O=C(c1ccco1)N1CCN(C2(c3ccccc3)C(=O)c3ccccc3C2=O)CC1	-1.42%
O=C(c1ccc2nc(/C=C(\O)c3ccc(Cl)cc3)c(O)nc2c1)N1CCN(c2ccco2)CC1	5.62%
COc1ccc(N2CCN(Cc3ccc(F)cc3F)CC2)cc1	1.4%
Cn1cc(CCC(=O)NCCCc2ccccc2)c2ccccc21	-1.68%
COc1ccc(C(=O)c2ccc(Br)cc2)c2ccccc12	0.467%
CCOC(=O)C1=CN(C(C)C)C=C(C(=O)OCC)C1c1cc(OC)c(OC)c(OC)c1	-1.48%
Cc1csc(NC(=O)c2ccccc2)n1	-1.41%
CC(=O)N1CCC(NCCc2ccccc2)CC1	-5.31%
COc1cc2c(cc1OC)N=C(c1cc(OC)c(OC)cc1NC(C)=O)CC2	-9.29%

Compound	% Inhibition @ 10 uM
Nc1n[nH]c(CC(=O)NC2(C(=O)Nc3ccccc3)CCCCC2)n1	-3.09%
CCOc1ccc(C2CC(=O)NC(SCc3ccccc3)=C2C#N)cc1 (centres unmarked)	-4.49%
O=C(NCc1ccc2c(c1)OCO2)NCc1noc2ccccc12	-2.3%
Cc1cc(=O)oc2c3c(ccc12)OCN(Cc1ccc(C(=O)O)cc1)C3	-1.71%
FC(F)(F)c1cc(-c2cccs2)nc(N2CCCCC2)n1	1.83%
Cc1nnc2c3ccccc3nc(NCCC3=CCCCC3)n12	1.74%
COc1cc(CN2CCCN(C)CC2)ccc1O	-0.261%
COc1ccccc1OCC(O)Cn1c[n+](C)c2cc(C)c(C)cc21 (centres unmarked)	-6.69%
CC(C)Oc1ccc(CNC(=O)C(C)n2ccc3cc(S(=O)(=O)N4CCCC4)ccc32)cc1 (centres unmarked)	9.64%
O=C1c2ccccc2-c2c1cccc2C(=O)N1CCCCC1	-4.93%
C=CCSc1nnc(-c2ccco2)n1-c1ccccc1	-1.71%
Cc1cc(C)c(Cn2c3ccccc3c3cnn(CC(=O)N4CCN(C)CC4)c(=O)c32)c(C)c1	-7.1%
COc1ccccc1N(CC(=O)N1CCOCC1)S(=O)(=O)c1ccc(C)cc1	1.64%
O=S(=O)(NCc1csc(-c2ccccc2)n1)c1cc(F)ccc1F	-2.45%
Cc1ccc(CSc2nc3ccc(C(=O)N4CCN(C(=O)c5ccco5)CC4)cc3n2C)cc1	-7.32%
CC1=CSC2=NC(=O)/C(=C/c3cc(C)n(-c4ccc(F)cc4)c3C)C(=N)N12	2.25%
O=C(c1nn2c(C(F)(F)F)cc(-c3ccccc3)nc2c1Cl)N1CCOCC1	-2.88%
O=C(/C=C/c1ccco1)NC(Cc1ccccc1)c1ccccc1 (centres unmarked)	3.47%
CC(=O)N1CCN(c2ccc(NC(=O)C(c3ccccc3)c3ccccc3)cc2)CC1	5.12%
Oc1ccc(-c2nc3ccc4ccccc4c3c3c2CCC3)cc1O	6.15%
O=[N+]([O-])c1ccccc1S(=O)(=O)n1cnc2ccccc21	3.47%
CCOc1ccc(N2C(=O)CC(N(Cc3ccc(OC)cc3)C(C)=O)C2=O)cc1 (centres unmarked)	-1.04%
CC1=C(C(=O)NCc2ccc3c(c2)OCO3)C2(CCC(C)CC2)OC1=O (centres unmarked)	3.19%
CSc1nc2sc3c(c2c(=O)n1Cc1ccccc1)CCCC3	2.92%
COc1cccc(/C=C2\CS/C(=C\c3cccc(OC)c3OC)C2=O)c1OC	-2.56%
COc1cc(C2C3=C(O)CC(C)(C)CC3=NC(C)=C2C(=O)Nc2nc3ccccc3s2)ccc1O (centres unmarked)	0.611%

Compound	% Inhibition @ 10 uM
O=C(c1ccc(Cl)cc1)N1CCCc2ccccc21	-7.28%
COc1ccc(C2C3=C(O)CCCC3=NC3=C2C(=O)CCC3)cc1 (centres unmarked)	2.7%
CSc1ccc(CCNC(=O)CCCn2c(=O)c3cccn3c3cccnc32)cc1	-2.73%
CC1=NOC(=O)/C1=C\c1ccc(OCC(=O)O)c(Br)c1	-3.63%
CSc1ccc(CN2CCN(Cc3cccnc3)CC2)cc1	-6.34%
CC1=C(C(=O)Nc2cccc(F)c2)C(c2ccc(N(C)C)cc2)C2=C(O)CC(C)(C)CC2=N1 (centres unmarked)	-4.49%
Cn1c(C(=O)NCc2cccnc2)cc2sccc21	-6.68%
CCOc1ccccc1N1CCN(C(=O)c2cc(OC)cc(OC)c2)CC1	-6.01%
CN(C)c1ccnc(SCc2ccccc2Cl)c1C#N	0.634%
C=CCn1c(SCC(=O)N2CCc3ccccc3C2)nc2sc(C)cc2c1=O	-0.994%
CCOC(=O)N1CCC(NCC2CCCCC2)CC1	-5.11%
Cn1cc(CNC(=O)c2cc(-c3ccccc3)nc3ccccc23)cn1	6.18%
COc1ccc(OCC(=O)N2CCN(C(=O)COc3ccc(OC)cc3)CC2)cc1	6.69%
CCc1ccc(S(=O)(=O)N2CCSC2c2cc(OC)ccc2OC)cc1 (centres unmarked)	-1.6%
CCOC(=O)N1CCc2c(sc3c2C(=O)NC(c2ccc(-c4ccc(Cl)cc4)o2)N3)C1 (centres unmarked)	4.08%
COc1cccc(NC(=O)COc2ccc(Cl)cc2Cl)c1	-3.24%
COc1ccc(-c2c(C)nn3c(O)cc(-c4ccccc4)nc23)cc1	4.52%
CCO/C(O)=C(/C(=N)C(F)(F)F)C(C)=O	-1.82%
CCC1CCCCN1CCCNC(=O)Cn1ncn2nc(-c3cccs3)cc2c1=O (centres unmarked)	-1.08%
Cc1sc(NC(=O)C2CC3CCC2C3)nc1-c1ccccc1 (centres unmarked)	2.42%
Cc1ccc(C(=O)n2cnnc2N)cc1Cl	0.275%
Cc1cc(C)c(Cn2c3ccccc3c3cnn(CC(=O)NCc4cccnc4)c(=O)c32)c(C)c1	-3.58%
CNC(=O)C(=O)Nc1cccc(Cl)c1	-4.01%
COc1ccc(CCCC(=O)Nc2cccc(SC)c2)cc1	-4.76%
CCOc1ccc(C2C3=C(O)CC(C)(C)CC3=NC3=C2C(=O)CC(C)(C)C3)cc1Cl (centres unmarked)	-1.6%
CC12OC(=O)C(Cl)(Cl)C1c1ccccc1C2=O (centres unmarked)	0.413%

Compound	% Inhibition @ 10 uM
O=C(O)c1ccc(CNC(=O)c2ccc3c(c2)C(=O)N(Cc2ccco2)C3=O)cc1	2.13%
COC(=O)C1=C(C)NC(=O)CC1c1cc(Br)ccc1OC (centres unmarked)	1.84%
CCN(CC)CCCCCOc1cc(C)c(Cl)c(C)c1	0.132%
Cc1c(C(=O)NCc2ccc3c(c2)OCO3)oc2c1-c1n[nH]cc1CC2	3.87%
CN1CCN(c2ncnc3c2cnn3C)CC1	5.84%
CC1(C)CC(=O)C2=C(C1)c1c(ccc3ccccc13)NC2c1ccccc1OCC(N)=O (centres unmarked)	-4.03%
CCN(Cc1ccncc1)C(=O)c1cccs1	-4.3%
Cc1cc(C)n(-c2cc(-c3ccccc3)nc(-c3ccc(Br)cc3)n2)n1	5.03%
COc1ccc(-c2nc3cc(C)ccn3c2NC(=O)c2ccc(OC)cc2OC)cc1	2.17%
Cc1ccc(NC(=O)c2cc3ccccc3oc2=O)c(Br)c1	3.03%
CCCc1c(C)nc2ccc(OC)cc2c1S	0.132%
COC(=O)c1ccccc1NC(=O)CCN1C(=O)c2ccccc2C1=O	-5.51%
CCN1CCC(N2CCCC(CO)C2)CC1 (centres unmarked)	1.83%
CO/C(O)=C1\C(C)=NC2=C(C(=O)CC(C)(C)C2)C1c1ccc(O)c([N+](=O)[O-])c1 (centres unmarked)	1.38%
COc1ccc(CNC2CCC(c3ccccc3)CC2)cc1OC (centres unmarked)	2.99%
c1cncc(-c2nc3ccccc3s2)c1	-0.294%
Clc1cc2c(c3ncccc13)OCN(CCC1=CCCCC1)C2	-3.21%
COc1cc2c(N3CCOCC3)cc(O)c(CC(=O)Nc3ccccc3)c2cc1OC	-0.0372%
CC(C)Oc1ccc(C(=O)Nc2ccc(Br)cc2)cc1	-6.05%
COc1ccc(OC)c(C2C(=O)N(C3CCC(C)CC3)CC(=O)N2CCc2ccccc2Cl)c1 (centres unmarked)	-4.06%
c1ccc2c(c1)nc(NCc1ccc3c(c1)OCO3)c1nnnn12	-6.58%
O=C(O)C1Cc2c([nH]c3ccccc23)C(c2ccccc2F)N1 (centres unmarked)	-0.999%
Cc1ccc(C)c(Cn2c(C)c(CNCCCN3CCCC3=O)c(C(=O)O)c2C)c1	-5.49%
